# Test results taken from PMC4242493.
# Some of the results follow. The list includes weakly bound sequences.
# Target: MaxL homodimer (UniProt P61244)
# Test: universal protein-binding microarray (PBM)
# Conditions: PBS-based mixture, 10 nM His-tagged protein dimer, 2% milk, 200 ng/uL BSA, 50 ng/uL salmon testes DNA, 0.02% TX-100; detection with Alexa 488 anti-His …; high values mean tight binding; most listed sequences are background and not binding sites; double strand, one strand shown
# Chain of UniProt P61244 (P61244 whole entry): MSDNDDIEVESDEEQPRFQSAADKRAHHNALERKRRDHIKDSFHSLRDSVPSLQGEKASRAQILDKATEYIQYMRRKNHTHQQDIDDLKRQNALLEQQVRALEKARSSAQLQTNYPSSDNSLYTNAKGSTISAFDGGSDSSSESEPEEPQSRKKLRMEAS
row,Sequence,binding signal (normalized occupancy)
1,ATGGCGAA,0.0789
2,ATAGAATC,0.0826
3,TATTTAGA,0.0735
4,CCCAGCTA,0.0687
5,ATGTAGAG,0.078
6,GATATTTA,0.0766
7,ACGTCATC,0.0802
8,CACAAATA,0.0727
9,AGTAAAAA,0.0773
10,CGTGGTAC,0.0934
11,GCACATCC,0.0791
12,ATGTCATG,0.0866
13,AAATGCAT,0.079
14,GAACTAGA,0.069
15,CGACTGCA,0.0704
16,CTCCTTGA,0.0735
17,GTCTCGTA,0.0768
18,CGTGCACA,0.0958
19,GCCAAGCC,0.0753
20,ACCAGTTC,0.0667
21,AGGTCTGA,0.0732
22,AGGTGTAC,0.0803
23,ATCTCCTA,0.0754
24,AACATCGG,0.0691
25,CTTTTCTA,0.0766

row,Sequence,binding signal (normalized occupancy)
1,GCACTCAA,0.0759
2,CATTCTTA,0.0756
3,AGGGGACT,0.0713
4,AAGGCGAT,0.0724
5,AGCGGGAC,0.0637
6,ATGGCAGG,0.0815
7,CTAGTGAC,0.0735
8,GACCGTAC,0.0783
9,AGACGGCC,0.0683
10,GCAATAAA,0.0711
11,AATCCAAT,0.0779
12,GTCTGAAA,0.0699
13,GGCACCAC,0.0771
14,ACGACGGC,0.0726
15,ACCTCAGT,0.0682
16,ACGGATTA,0.0759
17,CATTCGAC,0.0729
18,ACATGTTC,0.0965
19,TCTTTTAA,0.069
20,CACCACAG,0.0703
21,AAAACTCT,0.0689
22,CCGGGTGA,0.0737
23,AGTGCATA,0.0847
24,CTCTGGTC,0.0704
25,ACGACTTC,0.0722

row,Sequence,binding signal (normalized occupancy)
1,AATAGCGT,0.0809
2,AGGCTAAC,0.0752
3,AGGTCCCG,0.0661
4,CATTGTAC,0.0815
5,AGTTTTCC,0.0682
6,CGACACCA,0.0728
7,AAAAGTAA,0.0732
8,ACAAATTA,0.0784
9,TAAACGCA,0.0757
10,CTAAAAGA,0.0757
11,CAAAAATC,0.0745
12,GCAGACGA,0.0777
13,AATCTACT,0.073
14,GTTATCTA,0.0754
15,CCCGTATA,0.0781
16,CATTTTGG,0.0785
17,CAATGTAA,0.0768
18,CATTTTCC,0.0796
19,CATTCCCC,0.075
20,CGAGGTCA,0.0798
21,AGCCTGTC,0.0723
22,ACCATCAG,0.0758
23,GAGAGATA,0.0773
24,GAACAGCC,0.075
25,AAGTAGAA,0.0767

row,Sequence,binding signal (normalized occupancy)
1,CGCTCATA,0.077
2,AGGAGCAA,0.0681
3,AGTCGAGG,0.0658
4,AGCAGAAC,0.0709
5,CAGTATCC,0.0765
6,ATAACACA,0.0874
7,AGCAAGCT,0.0661
8,CGTTGGCC,0.0726
9,CCCGTTAA,0.0727
10,GACGCTAA,0.0729
11,AAGGATAG,0.073
12,CCGAGGGC,0.067
13,GACGGTTA,0.0748
14,CTATCCTC,0.0776
15,AGCCGGGG,0.065
16,TGTATCAA,0.0798
17,CAGCACGG,0.0854
18,CCTCCGAA,0.071
19,ATCGGGTG,0.0771
20,AAATAATT,0.0755
21,CGAGACGC,0.0734
22,CCGCTCTA,0.0745
23,ATAGGTGG,0.0801
24,CAAGTTGA,0.0728
25,ATAATGAA,0.0754

row,Sequence,binding signal (normalized occupancy)
1,CCAGCGTC,0.0675
2,AAACCTGC,0.0679
3,ACACCTTG,0.0844
4,CTTTTCCC,0.0717
5,ATCACCCA,0.0757
6,ACTACCGC,0.0731
7,TAGGTAGA,0.0713
8,CCACGACC,0.0791
9,CGGCGCAG,0.0668
10,CCACGCGA,0.131
11,TATCGAGA,0.0735
12,AACGGTGG,0.0765
13,CGGACTAG,0.0749
14,TCGGTACA,0.0824
15,ACCGAGAG,0.0705
16,TATTGTGA,0.0784
17,GTGGGTAA,0.0859
18,AGGGCGTA,0.0753
19,GTCCAATA,0.0769
20,GAGTTACC,0.0732
21,GACAACCA,0.0786
22,AACCCAAC,0.0777
23,ACATTACG,0.0819
24,AACGGGTC,0.0725
25,ACCATGTC,0.0794

row,Sequence,binding signal (normalized occupancy)
1,CCCTCTAC,0.0757
2,CCCGTTCC,0.0769
3,GGCACTAA,0.0726
4,GAACCTGC,0.0735
5,ATAGTAAT,0.08
6,GGCGATAA,0.0792
7,AAAGCCTG,0.0738
8,TACCTGCA,0.0797
9,CAGCCTCA,0.0731
10,ACAAACGC,0.0757
11,ATGACGCA,0.08
12,AACGGCGT,0.0724
13,ATCTTGTA,0.0777
14,CCACTAGA,0.0769
15,ACGACGTC,0.0746
16,GAATCGTA,0.079
17,ACTTCATG,0.0783
18,ATGTATAG,0.0889
19,GTACCCAA,0.076
20,ATATTATG,0.0846
21,CTCGCCAG,0.0703
22,GACGCCAC,0.0793
23,CGATTTAG,0.0724
24,GCGTGCCC,0.0965
25,CTTCAGAA,0.0708

row,Sequence,binding signal (normalized occupancy)
1,AATACTGA,0.0797
2,CCGGATTA,0.0735
3,GTGGCGCA,0.0878
4,CTAAAAAA,0.0743
5,ACCATAAC,0.078
6,ACCATCTG,0.0857
7,CGCTAGAA,0.0744
8,CGACATCG,0.0778
9,CCGTAAGG,0.0697
10,ACGTGACG,0.0972
11,GGGTATCA,0.0751
12,TGGAGCCA,0.081
13,ACAGACTC,0.0752
14,CATGTCGC,0.0857
15,CCGAAAAG,0.0704
16,ATTTCCGG,0.0725
17,GGACTGCC,0.0702
18,GGCTCAGA,0.0699
19,GCTTAGTA,0.0746
20,CAATCGAG,0.0731
21,CACCGTGC,0.0868
22,CTTTTAGA,0.0741
23,AGTTAGAA,0.069
24,AACGGGAC,0.0693
25,GGGAAGTA,0.0774

row,Sequence,binding signal (normalized occupancy)
1,TCCGAGCA,0.0717
2,GACTATTA,0.077
3,AGGTAGTC,0.0724
4,ATTCCCAG,0.0688
5,CAGTCGTA,0.067
6,CAGTAATC,0.0757
7,ACGTCCGC,0.0704
8,AGGTCATA,0.0813
9,AAATAACT,0.078
10,CGGTTGCC,0.071
11,CGACATCA,0.0792
12,CCATTAGC,0.0779
13,CCAGATGG,0.0817
14,GTGATGAA,0.0877
15,CTCGAAAC,0.0708
16,CCAGGAAA,0.0715
17,CGGTCCTA,0.0705
18,ATTGAATA,0.0761
19,CCGAGCTC,0.0647
20,ATTAGTAG,0.0794
21,AAGCATCC,0.0817
22,CTTGGTTA,0.0709
23,TATTGAGA,0.0781
24,CTTCCCTC,0.0745
25,ACGAAATG,0.0757

row,Sequence,binding signal (normalized occupancy)
1,AAGATCAC,0.0762
2,CTTCGACA,0.0762
3,AGGAGACA,0.084
4,GAGCACGC,0.094
5,GCTGTAAA,0.0685
6,AATATTGG,0.0822
7,GAAGGGTA,0.0708
8,AACAAAGG,0.0763
9,AGATGCGC,0.077
10,GCGTAGTA,0.0783
11,TTAGCAAA,0.0757
12,AGACATAA,0.0809
13,ATACGGAC,0.0761
14,CACTCACG,0.0888
15,CGTGGTTA,0.0887
16,CCCAGCCG,0.0687
17,ACGTCGGG,0.0757
18,AGCGGGAA,0.0687
19,CCGGAATA,0.0723
20,AGACCCAC,0.0763
21,AGTTGTAC,0.0739
22,TCGACAAA,0.0722
23,ATTGAGGC,0.0723
24,CTACGGTA,0.0724
25,ATGGATAC,0.0808

row,Sequence,binding signal (normalized occupancy)
1,TAGTAGCA,0.0819
2,GTAGTATA,0.0841
3,ACGCCCTC,0.0818
4,GTCCGGAC,0.0699
5,GTGTCTCA,0.0762
6,GGTGGAAC,0.0709
7,AGCTACGC,0.0651
8,CTCAATCA,0.0801
9,GAGAGTAA,0.0745
10,CTGAAACA,0.0774
11,AGCACCTA,0.0792
12,AGCTCTAT,0.0723
13,CCGCGGTC,0.0663
14,CTACTTTA,0.0795
15,AGCCCTTC,0.0713
16,GCGAATCA,0.0746
17,ACGTGAGC,0.107
18,AATCACAC,0.0864
19,AACTCCTT,0.0715
20,AACGTATC,0.0812
21,AAGCGTTA,0.0738
22,ACTTCGTC,0.0683
23,AGCGAGGG,0.0707
24,ACACGGAA,0.0755
25,TCCGTCGA,0.0681

row,Sequence,binding signal (normalized occupancy)
1,GCTTCAAA,0.0732
2,CCAGGTAG,0.0757
3,ACGTGATC,0.108
4,GTATGAGA,0.0832
5,CTGAGCAA,0.0695
6,TAGGTTGA,0.0752
7,CAGGCGCG,0.0807
8,ATCCGGCC,0.0704
9,AGTGGAAC,0.0693
10,ATATGAGA,0.0843
11,AGAGGTGG,0.0768
12,ATAAATCG,0.073
13,CAAGAGGA,0.0733
14,ATTGTCTC,0.0747
15,AAAGACGC,0.0704
16,ACGCGTGA,0.114
17,GTGAGCGA,0.0747
18,ACAGTGCC,0.0757
19,GCAATTGA,0.0758
20,AGTACATG,0.0893
21,AGAAACAA,0.0746
22,ATTATCCC,0.0812
23,ATGGGTAG,0.0856
24,GAAAGTAC,0.07
25,TACTCACA,0.0797

row,Sequence,binding signal (normalized occupancy)
1,CTAATATA,0.0824
2,AAGGAGAT,0.0716
3,GAATCCCA,0.083
4,GTCATCGA,0.0798
5,GCTGCTCC,0.0674
6,ATGATCTG,0.0874
7,AGCACCAC,0.0757
8,AAAAATCA,0.0774
9,ACCGTTCT,0.076
10,AACGAACT,0.0709
11,CCAAAGAC,0.0698
12,CGCCCCAA,0.0738
13,GATGCTCC,0.0753
14,TGTCATAA,0.0825
15,CCATGTGC,0.209
16,AGACAGGG,0.0719
17,GCGGGCCA,0.0659
18,GCCGCGTA,0.0703
19,CCTTATTA,0.0769
20,AGAAATGC,0.0774
21,GCACGCGA,0.109
22,CGCGGCCG,0.0698
23,GACAATAA,0.0828
24,ATTCAAAG,0.0759
25,ATCTCAGG,0.0689

row,Sequence,binding signal (normalized occupancy)
1,AAATTGCA,0.0733
2,ATGGGATG,0.0929
3,CAGGCCGG,0.0694
4,TATGTTGA,0.0883
5,CCTAATAG,0.0773
6,TAATCTAA,0.0722
7,GGGGTAAC,0.0823
8,ACTCACAT,0.0886
9,CCGGCATC,0.0727
10,CTTTAAAG,0.0726
11,ACATTAAC,0.0857
12,ATAATTCA,0.0809
13,GCGGCCAA,0.0703
14,CATACAAA,0.0762
15,AGTGTATC,0.0882
16,AACACCCG,0.0752
17,CTGGAAGC,0.0691
18,AACGTTTA,0.0757
19,AATGCACT,0.0779
20,ATGTCGAC,0.0863
21,CATAATGC,0.0816
22,ACTGGGCC,0.0687
23,CACTATCA,0.078
24,TCGCACAA,0.0786
25,CTCTGCGC,0.0691

row,Sequence,binding signal (normalized occupancy)
1,GGCCGGCC,0.0653
2,GTCTGCAC,0.0774
3,ACACCCTG,0.0751
4,AATGTCCA,0.0813
5,TAGACAAA,0.0715
6,AAGTGTGT,0.0824
7,ACGCGTCG,0.0769
8,CCGTGAGG,0.0784
9,AACCCTAC,0.0811
10,AAAATAAT,0.0717
11,CTAACATC,0.0796
12,CAGCTCCC,0.0688
13,GCCGCCAC,0.0728
14,ACCCGCGT,0.075
15,GCTTTTTA,0.0721
16,AATTTCCA,0.0826
17,CCGTTTCA,0.0737
18,ACACGCGA,0.116
19,AAGCCCCC,0.0706
